SMILES strings stand for the structures. In all, about 150,000 compounds went through this assay and about 540 (0.36%) showed an effect of 50% or more. The list shows a part of the results.

The assay has as its system Plasmodium falciparum. Description: Primary screen in NF54 nanoGlo assay, in single point, at 2uM, 72h; a lower Z score goes with more inhibition. The class given is functional, Erythrocyte. To be noted: timepoint 72 hour.
Regarding `CCOC1(C)CN(c2ncnc3scc(C)c23)C1`, the % Inhibition (usually the change of the read-out against control, counted positive when it falls) came to 2% and the Z score is on record as -0.28.
Turning to `CCCc1nn(-c2ccccc2)c(=O)n1CC(=O)NCc1ccccc1F`, the “% Inhibition” value is 0% and the Z score is listed as -0.07.
Turning to `CCC1CN(S(=O)(=O)CCc2c(F)cccc2F)CC2(CCOC2)O1` (stereo unspecified), the “% Inhibition” value is reported as -10% and the Z score is recorded as 1.51.
`Cc1cnc(CN2C[C@]3(CCCN(C(=O)c4ccoc4)C3)CCC2=O)cn1`: the “% Inhibition” value is -8% and the Z score is on record as 1.49.
For `CCCCNC(=O)c1nc(C)c(C)nc1C(=O)Nc1cccc(Cl)c1`, the “% Inhibition” value is given as -29% and the Z score came out at 3.43.
For `Cc1cc(C)n(CCn2ccnc2-c2cccc(-n3cccn3)c2)n1`, the “% Inhibition” value was -23% and the Z score is reported as 2.91.
For `Cc1nccn1-c1ccnc(C(=O)NC[C@H]2CCCCN2CCO)c1`, in that order: 22% and -2.76.
For `Cc1cccc2c1ccn2CCNC(=O)CCCC(=O)N1CCN(c2ccccn2)CC1`, in that order: -13% and 1.86.
Consider `CCCc1cc(O)n2nc(N3CCOCC3)c(C#N)c2n1`, for which the “% Inhibition” value is -12% and the Z score is 1.71.
As to `COc1ccc2cc1Oc1cccc(c1)CO[C@H]1CCN(C(=O)CCN3CCCC3=O)C[C@H]1NC(=O)CC2`, the “% Inhibition” value is recorded as -6% and the Z score was determined as 1.07.
Consider `NC(=O)c1ccccc1OCC#CCNC(=O)c1ccc(=O)[nH]c1`, for which the “% Inhibition” value is -17% and the Z score was determined as 2.13.
The corresponding values for `C[C@@]1(C(=O)NC2CCCCCC2)Cn2c(cc3occc32)C(=O)N1Cc1cccnc1` are -17% and 3.28.
Regarding `Cc1ccccc1OC[C@H](C)NC(=O)N(C)CC(C)(C)O`, the “% Inhibition” value is listed as -6% and the Z score is 0.8.
Take `Cc1cc(CNC(=O)N(C)Cc2c(C)noc2C)no1`: the “% Inhibition” value was 0% and the Z score came out at 0.02.
In the case of `Clc1cnc(N[C@@H]2COCC[C@@H]2OCc2ccccc2)nc1`, the “% Inhibition” value was -12% and the Z score turned out to be 2.33.
For the molecule `Cc1ccccc1CC(C)(C)NC(=O)N[C@H]1CCS(=O)(=O)C1`, the “% Inhibition” value was 1% and the Z score is listed as -0.17.
For `COC(=O)[C@@H]1CCCCN1CC(=O)Nc1cc(C2CCCC2)nn1-c1ccccc1`, the “% Inhibition” value was found to be 9% and the Z score was -1.16.
For the molecule `CN(CCc1cnn(C)c1)Cc1ccc(-n2cccn2)cc1`, the “% Inhibition” value worked out at 4% and the Z score is -0.8.
For `CN(Cc1ccc(Cl)cc1)CN1C(=O)C2C=CC1C2` (stereo unspecified), the “% Inhibition” value is recorded as -5% and the Z score worked out at 0.68.
For the molecule `COc1ccc(OC[C@@H](O)CN2CCC(O)CC2)c(CNC2(c3ccccc3)CC2)c1`, the “% Inhibition” value is -3% and the Z score is on record as 0.48.
In the case of `Cc1cc(NC(=O)c2ccnc(OC3CCOCC3)c2)sn1`, the “% Inhibition” value was -6% and the Z score stood at 1.13.
Consider `Cc1ccc([C@@H]2C=C(c3ccccc3)N(CC(=O)Nc3ccccc3)c3nnnn32)cc1`, for which the “% Inhibition” value is -5% and the Z score came to 0.8.
With `CN1CCN(C(=O)[C@H]2C[C@@](C)(C(=O)O)N(C)[C@H]2c2ccc(Cl)cc2)CC1`, the “% Inhibition” value is -12% and the Z score stood at 1.42.
With `Cc1cc(C)c(NC(=O)CN2c3ccccc3N(C3CC3)S2(=O)=O)c(C)c1`, the “% Inhibition” value is given as -4% and the Z score came to 0.43.
`CC(C)c1nn(-c2ccccc2)c(Oc2cccc(F)c2)c1CN(CC1CC1)C(=O)c1ccco1`: the “% Inhibition” value is given as -13% and the Z score is on record as 1.18.
On to `COCC(C)(C)NC(=O)c1cccc(Br)c1C`, for which the “% Inhibition” value is -8% and the Z score came out at 0.84.
For the molecule `Cc1ccc(-c2noc(CN3CCc4sccc4C3)n2)cc1`, the “% Inhibition” value is -13% and the Z score is 1.43.
For `COc1cc(Cl)c(C)cc1-n1cc(C2CC2)nn1`, in that order: -9% and 1.05.
Take `CCC[C@]1(COC)CCCN1Cc1nc(CS(C)(=O)=O)no1`: the “% Inhibition” value is on record as -7% and the Z score is on record as 1.19.
For `CN1CCCC(CN2C(=O)CN(C3CC3)C2=O)C1c1cccc(Cl)c1` (stereo unspecified), in that order: -1% and 0.07.
In the case of `O=C(CCc1cccs1)N1CCC2(CC1)[C@H](O)C[C@@H]2O`, the “% Inhibition” value is on record as -9% and the Z score amounted to 1.48.
Regarding `Cc1noc(C)c1N(C)C[C@@H]1CCC(=O)N1`, the “% Inhibition” value came to 7% and the Z score is reported as -1.06.
With `Cc1cccc(Cn2nc(CC(C)C)nc2CC2CNC2)c1`, the “% Inhibition” value amounted to 2% and the Z score is -0.29.
For `Cc1cccc(Cl)c1NC(=O)[C@H](C)N1Cc2cnn(C)c2CC(C)(C)C1`, in that order: -5% and 0.59.
For `O=C(CN1CCCC[C@H]1c1nc(C2CC2)no1)Nc1cccnc1`, the “% Inhibition” value is given as -7% and the Z score stood at 1.26.
For `COc1cccc(CNS(=O)(=O)c2ccc3c(c2)OC[C@@H](C(=O)N2CCCCC2)O3)c1`, the “% Inhibition” value is -12% and the Z score was 1.99.
With `CN=C(NCc1nc(C)no1)NCc1ccccc1OC(C)(C)C`, the “% Inhibition” value was -8% and the Z score is recorded as 0.86.
For the molecule `COCCOCCOc1ccc(CONC(=O)Cc2cccc3ccccc23)cc1`, the “% Inhibition” value is recorded as -1% and the Z score is 0.08.
The corresponding values for `Cc1cnc(CN2C[C@]3(CCCN(C(=O)CC(F)(F)F)C3)CCC2=O)cn1` are -13% and 1.9.
On to `COc1ccc(CNC(=O)COCCc2ccccc2)c(OC)c1`, for which the “% Inhibition” value was 4% and the Z score was -0.44.
With `Cn1c(COc2ccc(F)cc2)nnc1N1CCOC(C)(C)C1`, the “% Inhibition” value was -4% and the Z score is listed as 0.41.
On to `NCCn1cc(C(=O)N[C@H]2CCC[C@H]2Cc2ccc(F)cc2)nn1`, for which the “% Inhibition” value is reported as -3% and the Z score is 0.58.
For `CCCn1nc(C(=O)N2CCCN(C(C)=O)CC2)ccc1=O`, in that order: -11% and 1.84.
In the case of `CC(C)(Cc1ccc(O)cc1)C(=O)N1CCOc2ncccc2C1`, the “% Inhibition” value is -3% and the Z score stood at 0.56.
Regarding `CC(C)(C)OC(=O)C(C)(C)c1nc([C@H]2CCCOC2)cs1`, the “% Inhibition” value is on record as -9% and the Z score is reported as 1.57.
For `CS(=O)(=O)N1CCc2cc(S(=O)(=O)NC3CCCCCC3)ccc21`, in that order: -5% and 0.82.
For `COc1ccc(F)cc1CN1CCC(Oc2cccc(F)c2)(C(=O)O)CC1`, in that order: -4% and 0.52.
Consider `O=C(NCCCN1CCOCC1)c1cnoc1-c1ccccc1`, for which the “% Inhibition” value was -6% and the Z score is 1.1.
With `CC(C)C[C@H]1NC(=O)c2cc(F)ccc2OCCn2cc(nn2)CCN(C(=O)CCC2CCC2)CCNC1=O`, the “% Inhibition” value is -1% and the Z score is recorded as 0.15.
With `COc1ccc(CNC(=O)N2CCCOCCNC(=O)[C@@H]3CCCC[C@@H]32)cc1`, the “% Inhibition” value is -8% and the Z score amounted to 1.43.
With `CCn1cc(CNC(=O)c2cc(C)nc3onc(-c4ccc(OC)cc4)c23)cn1`, the “% Inhibition” value is on record as -1% and the Z score is listed as 0.15.
As to `COCC(=O)N1CCCC2(CCCCC2)CC1`, the “% Inhibition” value is given as -4% and the Z score stood at 0.56.
For `Cc1ccc(Cn2c(=O)c(C(=O)NCc3ccccn3)nn(-c3ccc(C)c(F)c3)c2=O)cc1`, in that order: -17% and 2.8.
On to `O=C(C1CCCCC1)N1CC[C@H](c2nnc(-c3ccccc3)o2)C1`, for which the “% Inhibition” value stood at 12% and the Z score is -1.4.
In the case of `CON(C(=O)c1nc(C)oc1C)[C@@H](C)c1ccccc1C`, the “% Inhibition” value is reported as 6% and the Z score is -0.67.
On to `CCc1ncnc(NCC2CCCC2NS(C)(=O)=O)c1F` (stereo unspecified), for which the “% Inhibition” value is listed as -9% and the Z score is listed as 0.88.
On to `O=C(Nc1cccc(N2C(=O)c3c(Cl)c(Cl)c(Cl)c(Cl)c3C2=O)c1)c1cccs1`, for which the “% Inhibition” value was 9% and the Z score is -1.24.
In the case of `O=C(CCc1ccc(Cl)c(F)c1)N1CCC(N2C(=O)CNC2=O)CC1`, the “% Inhibition” value is -1% and the Z score was 0.11.
On to `c1ccc(CC(c2cc(-c3ccccc3)nc(-c3ccccc3)c2)c2cc(-c3ccccc3)nc(-c3ccccc3)c2)cc1`, for which the “% Inhibition” value was found to be 6% and the Z score is on record as -1.07.
With `Cc1cccc(CN(Cc2nc(C(=O)NCCN3CCOCC3)co2)[C@@H](C)C(C)C)c1`, the “% Inhibition” value was determined as 2% and the Z score was -0.15.
For `Cc1oc2c(c1C(=O)N(C)CCc1ccncc1)C(=O)CCC2`, the “% Inhibition” value is -7% and the Z score is recorded as 0.96.
Turning to `Cc1cccc(NC(=O)N2CCC(c3cc(N)on3)CC2)c1`, the “% Inhibition” value was determined as 1% and the Z score is on record as -0.16.
On to `CN(CCc1cccs1)C(=O)NCC1CCC2(CC1)OCCO2`, for which the “% Inhibition” value is on record as 0% and the Z score was -0.04.
In the case of `Cc1cnc(C)c(N2CCC[C@H](c3ncc(C)s3)C2)n1`, the “% Inhibition” value was -11% and the Z score worked out at 1.45.
The corresponding values for `CCCc1cnc(C)nc1NC(CO)(CO)CO` are -1% and 0.13.
`CNS(=O)(=O)CC(=O)NCC1(Nc2ccccc2C)CCCC1`: the “% Inhibition” value is -5% and the Z score came to 0.87.
With `CC(C)(C)OC(=O)NCC1CCCCC1OC(=O)C1CCOCC1` (stereo unspecified), the “% Inhibition” value is -1% and the Z score came to 0.16.
Turning to `CC(C)c1nnc(NC(=O)[C@@H]2CN(Cc3ccccc3)CCO2)s1`, the “% Inhibition” value came out at 0% and the Z score stood at 0.
`Cc1c([C@@H]2CC(=O)Nc3c2nc2n3CCCC2)c(=O)n(-c2ccccc2)n1C`: the “% Inhibition” value is recorded as -6% and the Z score turned out to be 0.96.
For `CCOc1ccc(CCn2c3c(c(=O)[nH]c2=O)C(C(F)(F)F)(C(F)(F)F)N=C(c2ccccc2)N3)cc1OCC`, in that order: -12% and 1.56.
Take `COc1ccccc1-c1nnc(-c2cccc(S(=O)(=O)N3CCCC3)c2)o1`: the “% Inhibition” value was determined as 4% and the Z score is -0.61.
Regarding `O=C(NCc1nccs1)c1ccc(Cl)o1`, the “% Inhibition” value is recorded as 28% and the Z score is reported as -3.83.
On to `Cc1cc2nc(C)c(=O)n(Cc3ccc(C(=O)NCc4ccco4)cc3)c2cc1C`, for which the “% Inhibition” value was 35% and the Z score is on record as -0.73.
For `FC(F)(F)c1nnc2ccc(N3CCNc4ccccc4C3)nn12`, in that order: 1% and -0.15.
Take `CN1CCN(S(=O)(=O)c2ccc3c(c2)CCCC3)CC1`: the “% Inhibition” value is -13% and the Z score was 1.39.
In the case of `O=C(Cc1cc(-c2ccccc2)on1)Nc1cccc(C(=O)O)c1`, the “% Inhibition” value is -11% and the Z score amounted to 2.06.
Consider `CCC(=O)Nc1ccc2c(c1)CN(C(=O)c1ccccc1OC)[C@H](C(=O)N1CCCC1)C2`, for which the “% Inhibition” value is listed as -5% and the Z score stood at 0.83.
Take `Cc1ccnc(-c2noc([C@H](C(=O)OC(C)(C)C)C3CCCC3)n2)n1`: the “% Inhibition” value is -10% and the Z score is given as 1.42.
The corresponding values for `CCC(NC(=O)c1cc2n(n1)CCC2)C(O)c1c(F)cccc1F` (stereo unspecified) are -5% and 0.88.
The corresponding values for `CCc1noc(-c2nc(-c3ccccc3C)no2)n1` are 3% and -0.47.
On to `CCOc1ccc(NC(=O)CCc2c(C)nn(-c3nc(C)c(C)c(=O)[nH]3)c2C)cc1`, for which the “% Inhibition” value is given as -11% and the Z score worked out at 1.47.
As for `Cc1n[nH]c(C)c1-c1ccc(C(=O)N2CCOCC2)o1`, the “% Inhibition” value is recorded as -19% and the Z score was 2.5.
The corresponding values for `Cc1ccc(S(=O)(=O)N(c2cccc(F)c2)C2CCN(C)CC2)c(F)c1F` are 1% and -0.14.

The record behind these values is ChEMBL document CHEMBL4888484, “Replenishing the malaria drug discovery pipeline: Screening and hit evaluation of the MMV Hit Generation Library 1 (HGL1) against asexual blood stage Plasmodium falciparum ,using a nano luciferase reporter read-out” (2022).
